# Experimental data from PubChem BioAssay AID743279 (National Center for Advancing Translational Sciences (NCATS), 2014).
# Among all 360,000 compounds or so, about 17,000 (4.7%) were called active. Inconclusive means that the source gave no clear call. Such entries were picked first, then a sample of the others. Cut-off read from the data, not from the text of the source: active = activity change below about -50%; inconclusive = mostly about -30% to -49%; inactive = weaker than that.
# Experiment: qHTS for Inhibitors of Inflammasome Signaling: IL-1-beta AlphaLISA Primary Screen
# Settings: THP-1 LPS/ATP IL-1B secretion, 16 h; at 57.5 µM, stronger effect = lower value
# Outline: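 THP-1 cells pretreated 1 hr with compounds (up to 57.5 uM final), then stimulated with LPS (250 ng/mL final) plus ATP (1.25 mM final); secreted IL-1B measured by AlphaLISA after 16 hr, decreased signal indicating inhibition.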
# % is set by controls: 0 for no effect and ±100 for the full control effect.
row,SMILES,activity change
1,Cc1cc2occ(CC(=O)N(C)CC(=O)Nc3ccc(F)cc3)c2cc1C,inconclusive: -45.4%
2,[O-]/[N+](=C\c1ccc(F)cc1)c1ccccc1,inconclusive: -49.7%
3,COCCN(Cc1cc2ccc(C)c(C)c2nc1Cl)C(=O)N1CCOCC1,inconclusive: -40.4%
4,CCOC(=O)N1CCC(NC(=O)c2cc(C(=O)Nc3ccc(S(=O)(=O)N4CCCCC4)cc3)ccc2CO)CC1,inactive: 56.1%
5,C[C@H](NC(=O)c1nc[nH]c1C(=O)NC(c1ccccc1)c1ccccc1)C(=O)OC(C)(C)C,inconclusive: -44.9%
6,FC(F)(F)c1cccc(-n2cc(-c3ccccc3)[nH]c2=S)c1,inactive: -5.73%
7,O=C(OCC(=O)N1CCCC1)c1cc([N+](=O)[O-])ccc1Cl,inconclusive: -32.9%
8,Cc1cc2n(n1)C(c1ccccc1)CC(c1ccc(Br)cc1)=N2 (centres undefined),inconclusive: -39.3%
9,O=C1c2ccc3c4c(ccc(c24)C(=O)N1c1ccc(O)cc1)C(=O)N(c1ccc(O)cc1)C3=O,inactive: 128%
10,COc1cccc(CN2CCC2(C)C(=O)Nc2ccc3c(c2)CCN3C(C)=O)c1F (centres undefined),inconclusive: -35.1%
11,C=CCC[C@H](Cc1ccc(F)cc1)C(=O)OC[C@H](Cc1c[nH]c2ccccc12)NC(=O)[C@H](CC=C)CC(=O)N(CCO)Cc1ccccc1,inconclusive: -45.9%
12,O=C(N/N=C/c1cc2c(cc1Br)OCO2)c1c[nH]c2ccccc12,inconclusive: -43.6%
13,O=C(Nc1ccc(OCC(F)(F)C(F)F)c(C(F)(F)F)c1)c1ccccc1,inconclusive: -46.8%
14,CC(C)(C)C1CCC(OCC(O)CN2CCN(c3ccccn3)CC2)CC1 (centres undefined),inconclusive: -32.7%
15,CC(=O)c1ccc(N2CCN(c3ccccc3O)CC2)c([N+](=O)[O-])c1,inconclusive: -40%
16,COc1ccc(NC(=O)c2cccc(NC(=O)c3ccccc3)c2)cc1,inconclusive: -42.9%
17,Oc1oc(-c2ccco2)nc1C=Nc1cccc(Cl)c1,inconclusive: -32.1%
18,COc1ccccc1NC(=O)Cn1cnc2c(nc3n2CCCCC3)c1=O,inactive: 24.4%
19,CC1CCCCN1CCCNC(=O)C1CCN(c2nnc(-n3cccc3)s2)CC1 (centres undefined),inconclusive: -44%
20,O=C(COC(=O)/C=C/c1ccccc1)NC1CCCCC1,inactive: -1.76%
21,CC(=O)N1c2ccc(S(=O)(=O)NCC3CCC(C(=O)Nc4cc(C)ccn4)CC3)cc2CC1C (centres undefined),active: -78.5%

row,SMILES,activity change
1,CCn1cc(S(=O)(=O)c2ccc(OC)cc2)c(=O)c2cc(OC)ccc21,inactive: -8.89%
2,CCOC(=O)C1CCN(C(=O)COC(=O)/C=C/c2ccccc2)CC1,inconclusive: -30.8%
3,CCOc1ccc(OCCC(=O)Nc2ccccc2C(=O)NC2CC2)cc1,inactive: 2.59%
4,O=C(O)CSc1nccc2ccccc12,active: -61.2%
5,CCn1c(CNC(=O)c2ccccc2F)nnc1SCC(=O)NC1CCCCC1C (centres undefined),inactive: 3.23%
6,COc1cc(/C=C2\SC(=O)N(CCNC(=O)c3c(C)noc3C)C2=O)cc(OC)c1OC,inconclusive: -30.4%
7,CCOC(=O)C1=C(C)OC(N)=C(C#N)C1c1cc2cc(C)ccc2nc1N1CCCCC1 (centres undefined),inactive: 0%
8,Cc1ccc(CN(Cc2ccccn2)C(=O)Nc2ccc(C)c(C)c2)cc1,active: -57.9%
9,O=C(COC(=O)/C=C/c1ccc2ccccc2n1)NNC(=O)c1ccccc1,inconclusive: -38.5%
10,COc1ccc(-c2noc(CN(C(=O)c3cccs3)C(C)C)n2)cc1,inactive: 0%
11,Cn1c(SCC(=O)N2CC(=O)Nc3ccccc32)nc2ccccc2c1=O,inconclusive: -36.9%
12,COCCNC(=O)C1CCCN(Cc2ccc(-c3ccccc3)cc2)CC1 (centres undefined),inactive: -11.3%
13,COc1ccc(CN(C)C[C@H]2Oc3c(NC(=O)Nc4ccccc4)cccc3C(=O)N([C@H](C)CO)C[C@@H]2C)cc1,inactive: -7.08%
14,CCn1c(SCC(=O)N2CCCc3ccccc32)nnc1-c1ccoc1C,inconclusive: -37.9%
15,CC(=O)Nc1ccc(S[C@@H](CCN2CC[C@H](C(C)(C)C)CCC2=O)c2ccccc2)cc1,active: -74.5%
16,NNC(=O)c1sc(-c2ccc(Cl)cc2)cc1N,active: -77.6%
17,Cc1c(Br)c([N+](=O)[O-])nn1C(C)C(=O)Nc1ccc2c(c1)OCO2 (centres undefined),inconclusive: -46.8%
18,Nc1ncc(Br)cc1S(=O)(=O)NCCC(=O)N1CCN(c2ccccn2)CC1,inactive: 18.8%
19,CN(Cc1ccccc1)C(=O)c1[nH]cnc1C(=O)N[C@@H](CCCCNC(=O)OC(C)(C)C)C(=O)OC(C)(C)C,inconclusive: -32.8%
20,COCCN(C(=O)COC(=O)/C=C/c1ccccc1Cl)c1c(N)n(Cc2ccccc2)c(=O)[nH]c1=O,inconclusive: -44.6%
21,CC(C)(C)c1cc(CCC(=O)NNC(=O)c2ccncc2)cc(C(C)(C)C)c1O,inconclusive: -44.7%

row,SMILES,activity change
1,CCCn1c(=N)n(CC(O)COc2cccc(C)c2)c2ccccc21 (centres undefined),inconclusive: -49.4%
2,CC1(C(=O)NS(=O)(=O)c2ccccc2C(F)(F)F)CCN1C(=O)COc1ccc(Cl)cc1 (centres undefined),inactive: 27.4%
3,COC(=O)c1c(C(=O)OC)n(CCCN)c2ccc(C)cc12,inconclusive: -43.7%
4,CCCCC(CC)C(=O)Nc1cccc(SC)c1 (centres undefined),inconclusive: -32.8%
5,O=C(c1ccccc1)C1CN(Cc2ccccc2)CCC1(O)c1ccccc1 (centres undefined),inconclusive: -40.9%
6,CCOc1ccc(CC(=O)Nc2ccc(NC(=O)c3ccco3)cc2)cc1OCC,inconclusive: -42.5%
7,CCCCC(O)(c1ccc(OC)cc1)C(CN1CCOCC1)c1ccccc1 (centres undefined),inconclusive: -33.6%
8,Cc1cccc(NC(=O)CC2C(=O)NCCN2C(=O)Nc2ccc(Cl)cc2)c1 (centres undefined),inconclusive: -37.5%
9,CCOC(=O)Nc1c2ccccc2nc2ccccc12,inconclusive: -34.6%
10,O=C(CCCN1C(=O)/C(=C/c2ccccc2)SC1=S)Nc1ccc(C(=O)O)c(O)c1,inactive: 10%
11,CC(C)c1ccc(/C=N/NC(=O)CN(c2cccc(Cl)c2Cl)S(C)(=O)=O)cc1,inconclusive: -30.2%
12,S=C1NCN(Cc2ccccc2)CN1C1CCCCC1,inconclusive: -37.9%
13,Cc1nc(N)c(C#N)c(-c2cccnc2)c1C,inconclusive: -47.7%
14,NS(=O)(=O)c1ccc(CNC(=O)COc2ccc3c4c(c(=O)oc3c2)CCCC4)cc1,inconclusive: -49.2%
15,CCOc1ccc(C(=O)N[C@H](C(=O)Nc2ccc(OC)c(S(=O)(=O)N3CCOCC3)c2)C(C)C)cc1,inconclusive: -42.6%
16,Cc1ccc(/C=N/n2nnnc2N)o1,inconclusive: -30.3%
17,O=C1NC(=O)C(CC(=O)N(Cc2ccco2)C2(C(=O)NC3CCCCC3)CCCCC2)N1 (centres undefined),inconclusive: -41.1%
18,CCn1nc(NC(=O)c2ccccc2)c2cc3cccc(C)c3nc21,inconclusive: -32%
19,COc1ccccc1-c1ccc2c(c1)C(C)(Cc1ccc(OC(F)(F)F)cc1)C(=O)N2 (centres undefined),active: -51.9%
20,CCc1nc2c(OCCOc3ccc(F)cc3)cccn2c1N(C)C(=O)c1ccco1,inconclusive: -33.1%
21,Cc1ccc(S[C@@H](CCN2CC[C@H](C)CCC2=O)c2ccccc2)cc1,inconclusive: -38.4%

row,SMILES,activity change
1,Cc1cc(C(=O)CN2C(=O)NC3(CCCCC3)C2=O)c(C)n1-c1ccc2c(c1)OCO2,inconclusive: -32.3%
2,O=C(/C=C/c1ccc[nH]1)c1ccccc1,inconclusive: -45.9%
3,CC(C)(CNC(=O)CNC(=O)c1ccccc1F)N1CCOCC1,inactive: -2.45%
4,Cc1ccc(NS(=O)(=O)c2cccc(C(=O)NC3CCN(Cc4ccccc4)CC3)c2)c(C)c1,inconclusive: -44.2%
5,NC(=S)N/N=C1\CCOc2ccc(Cl)cc21,inconclusive: -40.3%
6,CCCCC(=O)OCC(=O)C1(O)Cc2c(O)c3c(c(O)c2C(OC2CC(NC(=O)C(F)(F)F)C(O)C(C)O2)C1)C(=O)c1c(OC)cccc1C3=O (centres undefined),inconclusive: -31%
7,COc1ccc(C(=O)OCC(=O)c2c[nH]c3ccccc23)c(OC)c1,inactive: 34.6%
8,Cc1cc(C(=O)NC2CCCC2)c2ccccc2n1,inactive: 2.11%
9,Cc1ccc(NC(=O)Cc2nc(COC(=O)c3c(F)cccc3Cl)cs2)cc1,active: -59%
10,c1ccc(CCC2CCCCN2Cc2cn[nH]c2-c2cc3ccccc3o2)nc1 (centres undefined),inconclusive: -32.8%
11,O=C(Nc1ccc2ccccc2c1)c1ccc(Cl)cc1Cl,inconclusive: -37.5%
12,CCOc1ccc(NC(=O)CCC(=O)NNC(=O)c2ccccc2Cl)cc1,inactive: 9.28%
13,CCOc1ccccc1-n1c(SCC(=O)Nc2ccc(CC)cc2)nc2n[nH]c(C)c2c1=N,inactive: -7.08%
14,COc1cc(-c2nc3cc(C)ccn3c2NC2CCCCC2)ccc1-c1ccc(C(C)=O)cc1,inconclusive: -41%
15,CC1(C(=O)NCc2cccc3ccccc23)CCN1Cc1ccccc1OC(F)F (centres undefined),inconclusive: -31.2%
16,O=C(CN1C(=O)S/C(=C\C=C\c2ccccc2)C1=O)Nc1ccc(O)cc1,active: -53.8%
17,O=C(c1ccc(S(=O)(=O)N2CCCCCC2)cc1)N1CCN(Cc2ccccc2)CC1,inconclusive: -36.5%
18,COCCNC(=O)Cn1cnc2ccc(S(=O)(=O)N3CCC(C)CC3)cc2c1=O,inactive: 26.8%
19,COc1cc2nc(Nc3ccc(C)c(Cl)c3)nc(N)c2cc1OC,active: -94%
20,Cc1ccccc1OCc1n(CC(=O)OC2CC(C)CCC2C(C)C)c2ccccc2[n+]1C (centres undefined),inconclusive: -35.3%
21,O=C(N1CCCCC1)C12CC3CC(C1)CC(C(=O)N1CCCCC1)(C3)C2,inactive: 3.44%
